{"source": "PubChem BioAssay AID1345083", "about": "(National Center for Advancing Translational Sciences (NCATS), 2018)", "note": "Out of some 94,000 compounds screened, about 6,200 (6.6%) were called active. This list was built around the results that the source calls inconclusive (neither active nor inactive); the mix of calls is not that of the screen. Calls follow the shape of the dose curve; as a rule, active = well fitted inhibition curve with a large enough effect; inconclusive = small, poorly fitted or top-dose-only effect; inactive = flat fitted curve, though single readings scatter. A potency beside an inconclusive call is a rough fit, not a confirmed value. Potency is read from the fitted curve at half-maximal effect; tags tell the direction and shape of the fitted curve."}
{"experiment": "Cytotoxic Profiling in HEK 293 Cell Line of Diverse Libraries Using Quantitative High-Throughput Screening; also: nearly all actives have a fitted effect of over 60% in size", "conditions": "HEK 293 viability, ATP luminescence (CellTiter-Glo), 48-72 h; series mostly up to 115 µM", "procedure,_shortened": "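Cytotoxicity was scored by loss of ATP-coupled luminescence (CellTiter-Glo) in HEK 293 cells. Compound treatment ran 48 or 72 hr at 37 degree Celsius, 5% CO2, 95% humidity.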"}
{"smiles": "Cc1cc(C)n(CCC(=O)N[C@@H]2CN(Cc3ccccc3)C[C@H]2CN(C)C)n1", "Potency": "inactive"}
{"smiles": "O=C(C1CCCC1)N1CCC(n2c(=O)[nH]c3ccccc32)CC1", "Potency": "inactive"}
{"smiles": "COc1ccc(CN2CC(Oc3ccc(OC)cc3)C2)cc1", "Potency": "inconclusive: 126 µM [inhibitor, single point]"}
{"smiles": "O=C(c1ccccc1)N1CCn2c(nnc2C2CCNCC2)C1", "Potency": "inactive"}
{"smiles": "COc1ccc(CN2CC3(CCN(C(=O)Cc4c(F)cccc4Cl)CC3)C2=O)cc1", "Potency": "inconclusive: 89.1 µM [inhibitor, single point]"}
{"smiles": "COCC(=O)NC1CCN(c2nccc(Nc3ccccc3F)n2)CC1", "Potency": "inconclusive: 79.4 µM [inhibitor, partial curve, poor fit]"}
{"smiles": "CC(C)(C)c1ccc(-c2cc(C[C@H]3CNCC[C@H]3CC(=O)NCCN3CCOCC3)no2)cc1", "Potency": "active: 39.8 µM"}
{"smiles": "O=C1CC2(CCN([S+](=O)([O-])c3cccc(C(F)(F)F)c3)CC2)Oc2ccccc2N1", "Potency": "inconclusive: 44.7 µM [inhibitor, partial curve, poor fit]"}
{"smiles": "CC(C)CN1CCN(C(=O)CCC2CCN(c3cc(NC4CC4)ncn3)CC2)CC1", "Potency": "inconclusive: 35.5 µM [inhibitor, partial curve, poor fit]"}
{"smiles": "CC(C)Oc1ccc(CNC(=O)CCC2CCN(S(=O)(=O)c3ccccc3)CC2)cc1", "Potency": "inconclusive: 50.1 µM [inhibitor, partial curve, poor fit]"}
{"smiles": "COc1cc(F)ccc1-c1cc(-c2c(C)noc2C)c2cncn2c1", "Potency": "active: 63.1 µM"}
{"smiles": "Cn1cc(CC(=O)N2CCCc3ncc(C(N)=O)cc32)c2ccccc21", "Potency": "inconclusive: 8.91 µM [inhibitor, full curve]"}
{"smiles": "CSc1ccc(CNC(=O)c2nnn3c2COC(c2ccc(F)cc2)C3)cc1", "note": "(stereo not given)", "Potency": "inactive"}
{"smiles": "Cc1cc(=O)n(CC(=O)Nc2ccc(C(F)(F)F)cc2)c(N2CCOCC2)n1", "Potency": "inconclusive: 39.8 µM [inhibitor, partial curve]"}
{"smiles": "CN1C[C@@H](NC(=O)Nc2ccc(F)cc2F)C[C@H]1c1nc(-c2ccncc2)no1", "Potency": "inconclusive: 39.8 µM [inhibitor, partial curve, poor fit]"}
{"smiles": "CCN1CCN(C(=O)c2nc3sccn3c2-c2cccc(C#N)c2)CC1", "Potency": "inactive"}
{"smiles": "Cc1ccn2c(=O)cc(CN3CC[C@@H]4[C@@H](CCC(=O)N4CCC(C)C)C3)nc2c1", "Potency": "inconclusive: 89.1 µM [inhibitor, single point]"}
{"smiles": "Cc1nn(-c2ccccc2)c2c1C(C)N(C1CCN([S+](=O)([O-])c3c(C)noc3C)C1)C2=O", "note": "(stereo not given)", "Potency": "inconclusive: 31.6 µM [inhibitor, full curve, poor fit]"}
{"smiles": "CCCOCCCNC(=O)c1c(C)noc1-c1cc(OC)cc(OC)c1", "Potency": "inconclusive: 79.4 µM [inhibitor, partial curve, poor fit]"}
{"smiles": "O=C(Nc1ccccc1)O[C@@H]1CO[C@H]2[C@@H]1OC[C@@H]2n1nnnc1SCc1ccco1", "Potency": "inconclusive: 126 µM [inhibitor, single point]"}
{"smiles": "COCCN1C(=O)CCc2cc(NC(=O)c3ccc4c(c3)OCO4)ccc21", "Potency": "inconclusive: 63.1 µM [inhibitor, single point]"}
{"smiles": "COc1ccccc1-c1cc(Nc2ccc(N3CCOCC3)cc2)c2onc(C)c2n1", "Potency": "active: 63.1 µM"}
{"smiles": "CN1Cc2cccn2CC1CNC(=O)c1cc(CN2CCOCC2)on1", "note": "(stereo not given)", "Potency": "inactive"}
{"smiles": "COc1cccc(NC(=O)c2cnc3c(c2)N([S+](=O)([O-])c2cccnc2)CCC3)c1", "Potency": "inactive"}
{"smiles": "O=C(NC1CCN(c2cc(-c3cccs3)[nH]n2)C1)c1ccccc1Br", "note": "(stereo not given)", "Potency": "inconclusive: 50.1 µM [inhibitor, partial curve, poor fit]"}
{"smiles": "COc1ccc2c(c1)CN(CC=C(C)C)C(=O)CCN2CC(O)COC(C)(C)C", "note": "(stereo not given)", "Potency": "inconclusive: 56.2 µM [inhibitor, partial curve, poor fit]"}
{"smiles": "O=C1Nc2ccccc2O[C@H]2C[C@@H]1N(Cc1ccccc1)C2", "Potency": "inconclusive: 112 µM [inhibitor, partial curve, poor fit]"}
{"smiles": "CCS(=O)(=O)Nc1ccc(C2(C(=O)N3CCN(CC(C)C)CC3)CCCCC2)cc1", "Potency": "inconclusive: 70.8 µM [inhibitor, single point]"}
{"smiles": "O=C(NCC1CC1)c1cn2cc(-c3ccc(C(F)(F)F)cc3)sc2n1", "Potency": "inconclusive: 56.2 µM [inhibitor, partial curve, poor fit]"}
{"smiles": "CC(C)(C)CN1CCN(Cc2cnc(-c3ccc(Cl)cc3)nc2)CC1CCO", "note": "(stereo not given)", "Potency": "inconclusive: 44.7 µM [inhibitor, partial curve]"}
{"smiles": "COc1ccc(NC(=O)c2ccc3c(c2)n(C)c(=O)c2ccnn23)cc1OC", "Potency": "inconclusive: 14.1 µM [inhibitor, full curve]"}
{"smiles": "COc1cccc(CC(=O)N2CCN(C(=O)c3nnn4c3COC(c3ccc(C)cc3)C4)CC2)c1", "note": "(stereo not given)", "Potency": "inconclusive: 22.4 µM [inhibitor, single point]"}
{"smiles": "COc1ccc(S(=O)(=O)N[C@H]2C[C@@H](c3nc(-c4ccc(OC(F)(F)F)cc4)no3)N(C)C2)cc1", "Potency": "inconclusive: 22.4 µM [inhibitor, full curve]"}
{"smiles": "COc1cccc(N2CCN(C(=O)[C@H]3CCC[C@H]3NC(=O)c3cnc(C)cn3)CC2)c1", "Potency": "inactive"}
{"smiles": "O=C(Cc1ccc(F)cc1)N1CCc2nc(-c3ccccc3)nc(-c3ccc(Cl)cc3)c2C1", "Potency": "inconclusive: 31.6 µM [inhibitor, full curve]"}
{"smiles": "CNC(=O)c1cc(C)nc2onc(C3CCN(C(=O)c4ccccc4OC)C3)c12", "note": "(stereo not given)", "Potency": "inactive"}
{"smiles": "CC(C)(C)c1cnc([C@@H]2COCCN2C2CCCCC2)[nH]1", "Potency": "inconclusive: 126 µM [inhibitor, partial curve, poor fit]"}
{"smiles": "COC[C@@H]1CNC[C@H]1c1ccccn1", "Potency": "inconclusive: 11.2 µM [inhibitor, partial curve, poor fit]"}
{"smiles": "FC(F)(F)c1ccc(CNc2cc(Cl)nc3ccnn23)cc1", "Potency": "inconclusive: 35.5 µM [inhibitor, partial curve, poor fit]"}
{"smiles": "Cc1ccc(CCNC(=O)c2cc3n(n2)CC(c2ccc4c(c2)OCO4)OC3)cc1", "note": "(stereo not given)", "Potency": "inconclusive: 44.7 µM [inhibitor, partial curve, poor fit]"}
